The list shows a part of the results. These are enrichments in a pooled selection; single values are uncertain.
Tested on: SARS-CoV-2 3CLpro (nsp5)
Test: substrate phage enrichment score (protease-eluted vs HEPES control, +1 offset) (ratio); higher = better cleaved substrate
Settings: selection round: 4; protease elution time: 15 min
Protocol: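 Random heptapeptide substrate phage display (M13 pIII fusion, heptapeptide between an N-terminal biotinylated AviTag GLNDIFEAQKIEWHE and pIII; phages immobilised on streptavidin) eluted by cleavage with 50 nM protease in 20 mM HEPES at 37 °C. Selected phages were NGS sequenced, and the enrichment score is (reads in protease sample + 1)/(reads in HEPES blank-selection control + 1).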

Row | Substance | substrate phage enrichment score
1 | SERTLKC | 0.968
2 | YPSPVIP | 0.0926
3 | TGNSGSR | 0.294
4 | LQVLNKE | > 22
5 | GTAAAHH | 0.616
6 | VNSAGQR | 18.7
7 | ESNSRSR | 1.08
8 | PCAKKGE | > 22
9 | HESHSAG | 0.13
10 | FNSGPQR | > 41
11 | SSLATPQ | 4.8
12 | NSELSRD | > 27
13 | DYHGGNP | 1.33
14 | KQPSHCK | 3
15 | RPGVDFR | 13.3
16 | SNGAQVH | 2.33
17 | HHPAGGP | 0.0235
18 | NTRPKLQ | > 76
19 | PSQNRTT | > 26
20 | ESGGRIM | > 31
21 | SYNESWQ | 0.0833
22 | SATTRLQ | > 483
23 | SAAANHH | 0.795

Row | Substance | substrate phage enrichment score
24 | QTGTLNH | > 48
25 | KETQETE | 8.12
26 | NSAPSFS | 1
27 | RSVPQAE | > 55
28 | ACEATFQ | > 52
29 | EVRDECS | 0.15
30 | MPSRYSP | > 103
31 | LPYADIR | > 22
32 | CAAAHHQ | 0.783
33 | KCSGSKP | > 34
34 | TCIPIIQ | > 72
35 | SGSSWES | > 52
36 | EAPACTK | 0.114
37 | SRPAQLQ | > 87
38 | CGLTCDR | 0.087
39 | QTNPISR | 2.14
40 | SDESRLH | > 42
41 | KNRTMLQ | > 94
42 | ARHGEAH | > 26
43 | SRHSLET | 29.5
44 | ATRCVSK | 10
45 | QTPGPGL | 1.41
46 | RPSALTH | 3

Row | Substance | substrate phage enrichment score
47 | KSCPLAA | 12.5
48 | RTVPLNR | 3.5
49 | HMKRSPS | 2.67
50 | MKNPAHN | 16.7
51 | GHESHEP | 7.75
52 | LDTSFQG | > 25
53 | EIGCRLM | > 26
54 | VWPRGPQ | > 54
55 | NTTLQSN | > 28
56 | VAFELRP | 0.222
57 | HEQYFQG | 38
58 | THVCGPR | > 47
59 | PESRGII | > 34
60 | HSWLNAC | 1.94
61 | CWWTPHH | > 22
62 | SATPTLQ | 20
63 | MPRCTQS | 4.17
64 | SNARGDR | 2.57
65 | RLGHGLN | 0.611
66 | AGDIDMR | > 22
67 | YIPLSGR | 9.25
68 | PRSPSMN | 1.8
69 | QQSLICR | > 75

Row | Substance | substrate phage enrichment score
70 | GYFQGGS | 0.65
71 | GSITTPN | > 81
72 | DRSQNPL | 0.167
73 | TNVPFLM | > 29
74 | TRTDSLQ | > 27
75 | KQSDTVI | > 32
76 | WTAAHHH | 0.708
77 | LNKQSFM | 11.5
78 | PESSHSS | 4.22
79 | RSEHKAQ | 1.9
80 | LNQHMRS | 8
81 | KSSPPAH | > 292
82 | EERYFQG | 2.14
83 | RFDPYGR | > 40
84 | CRRSIRD | 0.588
85 | LKTTCKE | 0.211
86 | PTAAHHH | 0.961
87 | TKCPTRS | 4.9
88 | WAALCPN | 6
89 | PHIHLRD | > 44
90 | VTTLHSM | 14.5
91 | RHSDLLG | 2.14
92 | HRQRDHR | > 24

Row | Substance | substrate phage enrichment score
93 | GQPTTSA | > 24
94 | THESDEM | 0.333
95 | LTGVDCA | 58
96 | TRRPAQQ | 32.5
97 | KNELSPD | > 24
98 | TADAEIY | 19.3
99 | IEHDLRQ | 0.3
100 | FDSAAHH | > 29
101 | LRTSGCQ | > 42
102 | EPYFQGG | 1.75
103 | CDYPKLQ | 16
104 | SVRLQSG | > 678
105 | GRLGCRR | 24.5
106 | RPSSSME | 1.85
107 | VNLTTPK | 0.388
108 | LNGVRVQ | 3.11
109 | RRWQMDS | > 25
110 | RSAPTTT | 1.52
111 | IHGDLKA | 0.667
112 | VKTKDQG | > 22
113 | GPTTELM | 11.9
114 | TQRRENA | 0.0741
115 | VGIFRLV | 5.25

Row | Substance | substrate phage enrichment score
116 | LENKVEQ | > 53
117 | AFQGRSG | 4.75
118 | SAPAHHH | 0.625
119 | TTEQGMS | > 90
120 | QVRLQSH | > 51
121 | KSSRPGL | 1.89
122 | TDRANDA | 1.91
123 | YCHVLTV | 2
124 | STSWSCM | > 32
125 | QNNTELL | 0.136
126 | QATRLQS | > 121
127 | SRLQLHT | > 24
128 | VTRCVLQ | 8.25
129 | LTGDKYG | > 29
130 | DHRPKVT | > 72
131 | SCENLNW | 1.26
132 | SGGYGNN | > 143
133 | TNKCYTP | > 42
134 | SQIGSPQ | 1.88
135 | LTTGGIR | > 21
136 | QRGQPNV | 5.29
137 | ESQAVLQ | 82.6
138 | ASSCDGT | 13

Row | Substance | substrate phage enrichment score
139 | AGQFQPT | 2.46
140 | DLNSPAA | 1.6
141 | KTDGRHT | 26
142 | DATLQGL | 3.57
143 | HMMREPP | > 27
144 | NSLHPMR | > 24
145 | AQLSEHR | > 106
146 | MWAPQHR | 6.67
147 | QAKPKDV | 7.5
148 | LGAAHHH | 0.375
149 | STGDGPT | 0.1
150 | NSTTGSS | 3.22
151 | CEDTRNS | > 32
152 | HEKHDVK | 14.3
153 | SAWLQGD | > 50
154 | WQYESGA | 2.38
155 | TRLPTLQ | > 25
156 | CGRTSSS | 0.78
157 | ESTLGTH | > 23
158 | VSWNCDC | 4.71
159 | ATARDAL | 2
160 | AVLLQSR | > 178
161 | VQDLSLI | 21.5

Row | Substance | substrate phage enrichment score
162 | NRIDAYG | 1
163 | KSAMKDA | 0.438
164 | AKPTQLH | > 31
165 | ANRQCVP | 3.4
166 | WDVHGQD | > 29
167 | QALLQCI | > 23
168 | ATYTWQG | > 24
169 | LTEKGMI | 1.2
170 | TATTGLT | 6.25
171 | NAHQSQR | 3.33
172 | TELKPTL | > 21
173 | DAVNGEC | 0.946
174 | SAAAHHK | 1.47
175 | DCRLNEC | > 33
176 | FSPQTSQ | > 55
177 | RARQWSG | 2.37
178 | NEETEQR | > 25
179 | SSCSSHR | > 27
180 | RCGSKQQ | > 23
181 | EKNTTLQ | 438
182 | GHLRPHD | 0.281
183 | AHEWREH | 0.324
184 | PRSTAYG | 0.474

From the supplement of paper PMC10185492
